{"source": "the supplement of paper PMC11283458", "note": "Counter-ions that a name gives are not always drawn. This is one part of the list. Single values are uncertain, as repeats are few or missing."}
{"tested_on": "Mef2d microexon dual Nano/Firefly luciferase splicing reporter in Neuro-2a cells", "test": "B-score of Nano/Firefly luminescence ratio, V2 Mef2d microexon reporter (B-score (plate-normalised)); higher = more Mef2d microexon inclusion", "conditions": "24 h"}
{"compound": "COc1ccc(Cl)cc1NC(=O)Nc1ccc(Br)c(C(F)(F)F)c1", "note": "(4 µM);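 also: compounds at 4 µM (PKI library 0.5 µM) on Dox-inducible N2A Flp-In cells with PEST-tagged luciferases, 384-well plates, B-score from per-plate median-polish residual over median absolute residual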", "B-score": 1.7}
{"compound": "O=C(Nc1ccc(-n2nc(C(F)(F)F)cc2-c2cccs2)cc1)c1ccccc1", "note": "(4 µM)", "B-score": 3.56}
{"compound": "N#Cc1cc([N+](=O)[O-])cnc1SCC(=O)Nc1ccccc1", "note": "(4 µM)", "B-score": -8.62}
{"compound": "COc1cc2c(cc1OC)-c1[nH]nc(Nc3cccc(F)c3)c1C2", "note": "(0.5 µM)", "B-score": -4.66}
{"compound": "COc1ccc(C=C2CCCc3ccccc3C2=O)cc1", "note": "(4 µM)", "B-score": -5.9}
{"compound": "Clc1ccc2nc(-c3ccc4c(c3)OCCO4)cn2c1", "note": "(4 µM)", "B-score": -8.16}
{"compound": "COc1cccc2c1C(=O)c1c(O)c3c(c(O)c1C2=O)C[C@@](O)(C(C)=O)C[C@@H]3O[C@H]1C[C@H](N)[C@H](O)[C@H](C)O1", "note": "[Daunorubicin hydrochloride] (4 µM)", "B-score": -23.8}
{"compound": "CC(C)(C)c1ccc2[nH]c3c(c2c1)CCCC3=O", "note": "(4 µM)", "B-score": -10.4}
{"compound": "COc1ccc(OC)c(C(C)=O)c1OCc1ccccc1", "note": "(4 µM)", "B-score": 2.86}
{"compound": "Cc1ccc(NC(=O)c2coc(Br)c2)nc1", "note": "(4 µM)", "B-score": -14.3}
{"compound": "CSc1c(C#N)c(-c2cccs2)nn1CNC(=O)Nc1cc(C(F)(F)F)cc(C(F)(F)F)c1", "note": "(4 µM)", "B-score": 5.32}
{"compound": "Cn1cc(/C=C2\\C(=O)Nc3cccnc32)c2ccccc21", "note": "(4 µM)", "B-score": 6.5}
{"compound": "CS(=O)(=O)c1ccc(C(F)(F)F)cc1[N+](=O)[O-]", "note": "(4 µM)", "B-score": -5.34}
{"compound": "OCCNCCCOc1cccc(Cl)c1Cl", "note": "[2,3-DCPE hydrochloride] (4 µM)", "B-score": 8.08}
{"compound": "N#CC(C#N)=CC=C(Sc1ncc(C(F)(F)F)cc1Cl)c1ccc(Cl)cc1", "note": "(4 µM)", "B-score": 2.39}
{"compound": "CC(C)/N=c1\\cc2n(-c3ccc(Cl)cc3)c3ccccc3nc-2cc1Nc1ccc(Cl)cc1", "note": "[Clofazimine] (4 µM)", "B-score": 2.7}
{"compound": "CC(C)ON([C@@H](C(=O)NO)C(C)C)S(=O)(=O)c1ccc(-c2ccccc2)cc1", "note": "(4 µM)", "B-score": 7.47}
{"compound": "O=C(NC=Cc1ccsc1)Nc1cc(C(F)(F)F)cc(C(F)(F)F)c1", "note": "(4 µM)", "B-score": 3.99}
{"compound": "CCCCC1C(=O)N(c2ccccc2)N(c2ccc(O)cc2)C1=O", "note": "(stereo not given) [Oxyphenbutazone] (4 µM)", "B-score": -4.44}
{"compound": "COc1cc(NC(C)CCCN)c2ncccc2c1", "note": "(stereo not given) [Primaquine diphosphate] (4 µM)", "B-score": 4.24}
{"compound": "Cc1noc(C)c1C(=O)ON=C(N)c1cc(C(F)(F)F)cc(C(F)(F)F)c1", "note": "(4 µM)", "B-score": 3.07}
{"compound": "COC(=O)c1ccccc1NC(=O)Cc1coc2cc(C)cc(C)c12", "note": "(4 µM)", "B-score": -10}
{"compound": "COc1ccc(C=C(C#N)c2ccc([N+](=O)[O-])cc2)cc1[N+](=O)[O-]", "note": "(4 µM)", "B-score": 11.5}
{"compound": "C=CCn1c(=O)c2cnc(Nc3ccc(N4CCN(C)CC4)cc3)nc2n1-c1cccc(C(C)(C)O)n1", "note": "(0.5 µM)", "B-score": -4.63}
{"compound": "N#Cc1c(O)nsc1Nc1ccccc1C(F)(F)F", "note": "(4 µM)", "B-score": -2.51}
{"compound": "CC(C)(C)c1cc2nc(C(F)(F)F)cc(N3CCN(Nc4cc(Cl)cc(Cl)c4)CC3)n2n1", "note": "(4 µM)", "B-score": 2.7}
{"compound": "CCOC(=O)c1c(N2C(=O)C=CC2=O)sc2c1CCCC2", "note": "(4 µM)", "B-score": 1.63}
{"compound": "CC1S(=O)C(C)S(=O)C(C)S1=O", "note": "(stereo not given) (4 µM)", "B-score": -0.509}
{"compound": "O=C(NCc1nnc2ccccn12)Nc1ccc(F)cc1", "note": "(4 µM)", "B-score": -1.27}
{"compound": "Cc1cc(C)c(N(Cc2ccccc2)S(=O)(=O)c2ccc(OCCNC(=O)c3cc4ccccc4o3)cc2)c(C(=O)NO)c1", "note": "(4 µM)", "B-score": 9.02}
{"compound": "CCS(=O)(=O)Nc1ccc2c(c1)/C(=C(/Nc1ccc(CN3CCCCC3)cc1)c1ccccc1)C(=O)N2", "note": "[Hesperadin] (0.5 µM)", "B-score": -7.21}
{"compound": "Clc1ccc(N=Cc2c(-c3ccccc3)nc3n2CCS3)cc1", "note": "(4 µM)", "B-score": 1.32}
{"compound": "CC(Oc1ccc(F)cc1F)C(=O)Nc1sccc1C(=O)Nc1ccc([N+](=O)[O-])cc1", "note": "(stereo not given) (4 µM)", "B-score": -2.75}
{"compound": "CSc1sc(C(=O)Nc2cc(C(F)(F)F)cc(C(F)(F)F)c2)c(-c2ccc(Cl)cc2)c1C#N", "note": "(4 µM)", "B-score": -5.04}
{"compound": "O=C(Oc1ccc2c(c1)oc(=O)c1ccccc12)c1ccccc1Cl", "note": "(4 µM)", "B-score": 2.38}
{"compound": "CC1=NNC(=O)/C1=N\\Nc1ccccc1C", "note": "(4 µM)", "B-score": 11.6}
{"compound": "COc1ccc(-c2ccc3ncc4c(c3c2)n(-c2ccc(N3CCNCC3)c(C(F)(F)F)c2)c(=O)n4C)cn1", "note": "(0.5 µM)", "B-score": -10.2}
{"compound": "Cc1cc(Nc2cc(C)c(C#N)c(NC(C)CCCC(C)(C)O)n2)n[nH]1", "note": "(stereo not given) [TC-A 2317 hydrochloride] (0.5 µM)", "B-score": 4.78}
{"compound": "C=CC[C@@H]1C=C(C)C[C@H](C)C[C@H](OC)[C@H]2O[C@@](O)(C(=O)C(=O)N3CCCC[C@H]3C(=O)O[C@H](/C(C)=C/[C@@H]3CC[C@@H](O)[C@H](OC)C3)[C@H](C)[C@@H](O)CC1=O)[C@H](C)C[C@@H]2OC", "note": "(4 µM)", "B-score": 6.57}
{"compound": "COc1cccc(OCCCN)c1-c1cc(Nc2cnc(C#N)cn2)n[nH]1", "note": "(0.5 µM)", "B-score": -3.3}
